From the supplement of paper PMC11417369
Some of the results follow.

System: PfSIP2 AP2 domain 1 (GST-tagged)
Assay: gcPBM binding intensity (ln(normalized median fluorescence intensity)); higher = stronger DNA binding
In short: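 Binding intensity is defined as the maximum Masliner-normalised natural-log median intensity across replicate spots for either probe orientation. It was measured on an Agilent 4 × 180k array of primer-extended double-stranded 36-bp intergenic genomic probes and negative controls, to which GST-tagged P. falciparum DNA-binding domains made in E. coli were applied for 1 h in 1× PBS with 1% milk, 0.2 mg/ml BSA, 0.5% salmon testes DNA and 0.03% Triton X-100. Detection was by Alexa488 anti-GST antibody and scanning at 488 nm.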

| Sequence | gcPBM binding intensity (ln) |
| --- | --- |
| TTTTTATAAAAAATTTACACTATATGACAGAAGTAA [XGTACX_negctrl_site481] | 7.07 |
| GAATCCTTAATATGAACACACAAATATATTACCCAT [CACACA_site186] | 7.08 |
| TTTTGTTATTTTTCAGTGCAATATGATAATAATATA | 7.72 |
| TCTTTTTAACAAAAAAAAAAAAAAAAAAAAAAATTA [CACACA_negctrl_site1637] | 6.92 |
| AGAATTTTATTATATTGTACTTTTTATAAACCTTGT [XGTACX_site7495] | 6.86 |
| TACATTTATACTACTGCATTCAAAAAAAATAAAAAA [TGCATGCA_negctrl_site157] | 7.2 |
| TGCTTATTTAGAATTGTGCACAGCGAATATTCTGTT | 8.59 |
| TTTTTTTTTTCAAATACATGCATTTATGTATAATAC [TGCATGCA_site722] | 6.92 |
| TAGGAAAAAAATACAGTGCAATTTTTATATAAATAA [GTGCAC_site9979] | 7.86 |
| TTTTTTTTTTTTTTGTGTACTAATATTATAAATTTT [XGTACX_site4405] | 7.01 |
| TTTATATAAATCAAATGTACATATTCCAAATATATA [XGTACX_site8515] | 7.01 |
| TACATATTTTATAACTGTACTTTTTTATTATCCAAT [XGTACX_site5396] | 7.03 |
| TATATTATTTTTAGAAGTACTTATTGTTATAATTCT [XGTACX_site1015] | 6.85 |
| AGAAAAGATAAAAATAGTACATATATATTTACTTAT [XGTACX_site7820] | 6.76 |
| CTCCTTTCAAAAAAATGTACATGTTTACATTTCAAG [XGTACX_site7342] | 7.1 |
| TTATATATAATATGACGTACAATTATACATTTTATG [XGTACX_site7598] | 7.05 |
| ATAAATATTTATAACAGTACATATTTACTATCCTAA [XGTACX_site4497] | 6.75 |
| ACGATTAAATCGATAATACACACTAAATGTAAAACA [CACACA_site119] | 6.78 |
| TATACACATATTTTTACACACATATTTTTTCATATA [CACACA_site7244] | 7 |
| TATAAAAAAATATATATATATATTATATGTGTAGAA [TGCATGCA_negctrl_site391] | 7.32 |
| ATTTATTTGAAGAATTGTACTAAATTATATAGCGGT [XGTACX_site4998] | 7.31 |
| TATATCAAAATACATACACACATTTGTATTTACATT [CACACA_site5485] | 6.97 |
| ATTTTAATTTGTTATACACACACAAAAAAAATTATA [CACACA_site9306] | 7.08 |
| TTTTTTTTTAATCATGCACACTGTTAAAAGAATAAA [CACACA_site4817] | 8.57 |
| ACTGTCATTTATTGTAGTACGTCAATTTATTACATT [XGTACX_site2749] | 7.33 |
